# Measured values reported in the antibiotic and cytotoxicity screens of Wong et al. (2023).
# The other results are listed elsewhere or left out.
# How the values were obtained:
# [1] = tested on: HSkMC (human skeletal muscle cells); experiment: cytotoxicity call (relative viability < 0.9); conditions: 10 µM
# [2] = tested on: HepG2; experiment: cytotoxicity call (relative viability < 0.9); conditions: 10 µM
# [3] = tested on: S. aureus RN4220; experiment: growth inhibition call (relative growth <= 0.2); conditions: 50 µM
Compound,cytotoxicity call [1],cytotoxicity call [2],growth inhibition call [3]
C[C@@H]1CCCCO[C@@H](CN(C)S(=O)(=O)c2ccc(F)cc2)[C@@H](C)CN([C@H](C)CO)C(=O)c2cc(NS(=O)(=O)c3ccc(Cl)cc3)ccc2O1,inactive,inactive,inactive
COCC#Cc1cnc2c(c1)C(=O)N([C@@H](C)CO)C[C@@H](C)[C@@H](CN(C)S(=O)(=O)c1cn(C)cn1)O2,inactive,inactive,inactive
CCOC(=O)[C@@H]1[C@H](Cc2ccccc2)[C@H]2c3cc(OC)c(OC)cc3CCN2C(=O)N1c1ccc(OC)cc1,inactive,inactive,inactive
Cc1c(C(=O)O)sc(=O)n1C,inactive,inactive,inactive
CC(C)(C)[S@](=O)N1Cc2cc(C(=O)NCc3ccc4c(c3)OCO4)nc(-c3cccc(-c4ccncc4)c3)c2[C@@H]1CCO,inactive,inactive,inactive
Cc1c(CN2CCN(C(=O)[C@H](C)O)CC2)sc2c(N3CCOCC3)nc(-c3cnc(N)nc3)nc12,active,active,inactive
NC(=S)NCCC[C@H](N)C(=O)O,inactive,inactive,inactive
O=C1O[C@@H](c2ccccc2)[C@@H](c2ccccc2)N2[C@@H](c3ccc(O)cc3)[C@]3(C(=O)Nc4ccccc43)[C@@H](C(=O)NC[C@H](O)c3ccccc3)[C@H]12,inactive,inactive,inactive
Cn1ccc(C(=O)N2CC[C@@H]3OCCN(S(C)(=O)=O)[C@@H]3C2)n1,inactive,inactive,inactive
COCC#Cc1ccc([C@@H]2[C@H](CO)N3C(=O)CN(C(=O)CN4CCOCC4)C[C@@H]23)cc1,inactive,inactive,inactive
